# Measured values from PubChem BioAssay AID485297 (National Center for Advancing Translational Sciences (NCATS), 2010).
# Screen size: about 320,000 compounds; about 9,100 (2.8%) were called active. The shares of active, inactive and inconclusive entries below differ from those in the screen. The call rests on the fitted dose curve; in most records, active means well fitted activation curve with a large enough effect; inconclusive means small, poorly fitted or top-dose-only effect; inactive means no such curve, though single readings can be large or run the other way. No potency is given beside an inconclusive call; the fits are too rough.
# Test: qHTS Assay for Rab9 Promoter Activators; further: nearly all actives have a fitted effect of over 60% in size
# Conditions: Huh7 Rab9 promoter-luciferase reporter, luminescence, 24 h; series mostly up to 9.22 µM
# Summary of the method: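 Rab9 promoter-driven luciferase in stably transfected Huh7 cells; 1500 cells/well rested 2 h, exposed to compound in DMSO for 24 h at 37 °C, 5% CO2. Luminescence read 10 min after adding luciferase reagent at ambient temperature.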
# Potency means the concentration at half of the fitted maximal effect; tags describe the fitted curve by direction and shape.
row,SMILES,Potency
1,O=C(Nc1ccc(N2CCCCC2)c(Cl)c1)c1cccnc1,active: 2.82 µM
2,O=Nc1c2ccc[nH]c-2c2ccc([N+](=O)[O-])cc12,"inconclusive [activator, single point]"
3,Cn1cc(/C=C/C(=O)c2ccccc2)c2ccccc21,active: 1.26 µM
4,CN(C)c1ccc(CNc2ccccn2)cc1,"inconclusive [activator, single point]"
5,Nc1ccc(Cc2nc3c(ccc4ccccc43)[nH]2)cc1,active: 3.98 µM
6,O=C(Nc1ncc(Cc2cccc(Cl)c2Cl)s1)C1CCCO1 (stereo not drawn),active: 3.55 µM
7,Nc1cc(Cl)nc(N/N=C/c2ccccc2[N+](=O)[O-])n1,"inconclusive [activator, single point]"
8,O=[N+]([O-])c1ccccc1NC(=S)N/N=C/c1ccc(O)c(O)c1,"inconclusive [activator, partial curve, poor fit]"
9,Cc1c(/C=N/NC(=O)c2sc3ccccc3c2Cl)cnn1C,inactive
10,O=C(c1cc2cc(Br)ccc2o1)N1CCCC1,"inconclusive [activator, single point]"
11,COc1cc2c(cc1OC)C(c1ccccc1C)CC(=O)N2 (stereo not drawn),inactive
12,O=C(N/N=C/c1c[nH]c2ccccc12)c1ccc2c(c1)OCCO2,"inconclusive [activator, full curve]"
13,C=CCc1cccc2cc(C(=O)Nc3ccc(F)cc3)c(=O)oc12,"inconclusive [activator, single point]"
14,COCCn1c(C)cc(C(=O)CSc2nnc3ccccn23)c1C,"inconclusive [activator, full curve]"
15,COCC1CCCCN1C(=O)c1ccc2oc(CCc3ccccc3)nc2c1 (stereo not drawn),"inconclusive [activator, partial curve]"
16,Cc1ccc(C)c(OCc2cc(C(=O)N3CCOCC3)no2)c1,"inconclusive [activator, partial curve]"
17,COc1ccc(-n2c(C)cc(/C=C3\SC(=S)N(Cc4ccco4)C3=O)c2C)cc1,"inconclusive [activator, partial curve]"
18,COc1ccc(C2C(C(=O)N3CCN(c4ccccc4)CC3)c3ccccc3C(=O)N2C)cc1 (stereo not drawn),inactive
19,COc1ccc(CCNC(=O)c2ccc3c(c2)OCO3)cc1,"inconclusive [activator, single point]"
20,CCNC(=O)COc1ccc2ccccc2c1,"inconclusive [activator, single point]"
21,COc1ccc(C(C(=O)NC2CCCCC2)N(C(=O)c2ccco2)c2ccccc2OC)cc1 (stereo not drawn),inactive
22,CCOc1cccc2cc(C(=O)OCC(=O)Nc3c(C)cccc3CC)c(=O)oc12,inactive
23,Cc1ccc2cc(C#N)c(N3CCCC3)nc2c1C,"inconclusive [activator, partial curve]"
24,CCN(CCn1cccn1)Cc1cn[nH]c1-c1cccc2ccccc12,inactive
25,O=C(Nc1ccc(N2CCCCC2)cc1)c1cccnc1Cl,"inconclusive [activator, partial curve]"
26,Cc1cc2ccccc2n1CCNC(=O)c1ccccc1,"inconclusive [activator, partial curve]"

row,SMILES,Potency
1,COc1ccc(C(c2c(O)cc(C)oc2=O)c2c(O)cc(C)oc2=O)cc1,inactive
2,O=C(c1ccco1)N1CCN(c2c([N+](=O)[O-])nn(-c3cccc(Cl)c3)[n+]2[O-])CC1,inactive
3,N#C/C(=C\c1ccc(Br)s1)C(=O)N1CCN(c2ccccc2)CC1,inactive
4,C/C(=N\NC(=O)c1ccccc1NC(=O)c1ccc(Cl)cc1)c1ccncc1,"inconclusive [activator, partial curve, poor fit]"
5,O=C(NCc1ccc(Cl)cc1)C1CCCN1C(=O)Nc1ccc(F)cc1 (stereo not drawn),inactive
6,COc1cc(OC)cc(-c2nc(-c3ccc(Br)cc3)no2)c1,"inconclusive [activator, single point]"
7,CC(C)c1ccc(NC(=O)CN2C(=O)c3ccccc3S2(=O)=O)cc1,"inconclusive [activator, partial curve]"
8,Cc1ccc(OCC(=O)NCC(=O)Nc2ccc(F)cc2)c([N+](=O)[O-])n1,inactive
9,CSc1nc2ccc(Br)cc2[nH]1,inactive
10,COc1ccc(/C=N/Nc2ccccn2)c(OC)c1OC,"inconclusive [activator, single point]"
11,O=C(O)/C=C/C(=O)Nc1nccs1,inactive
12,CC(C)c1ccc(OCc2ccc(C(=O)NN3CCN(C)CC3)o2)cc1,active: 2.51 µM
13,Fc1ccc(CSc2ccc(-c3cccs3)nn2)cc1,"inconclusive [activator, single point]"
14,COCCNC(=O)c1cnn2c(C(F)(F)F)cc(-c3ccc(C)cc3)nc12,inactive
15,COc1ccccc1C(=O)Nc1nnc(-c2ccc(F)cc2)s1,active: 4.47 µM
16,O=C(Nc1nnc(SCc2ccc(F)cc2)s1)c1ccc2ncsc2c1,"inconclusive [activator, partial curve]"
17,Cc1ccc(S(=O)(=O)N2CCCCCC2)cc1C(=O)NCc1ccccn1,inactive
18,CC(C)Oc1ccc(C(=O)NC(=S)Nc2ccc(Cl)c(C(=O)O)c2)cc1,"inconclusive [activator, single point]"
19,Cc1cc(C(=O)CN2C(=O)C(=O)N(Cc3ccco3)C2=O)c(C)n1CCc1ccccc1,"inconclusive [activator, single point]"
20,COc1ccc(/C=N/NC(=O)c2cccc(NC(=O)c3ccc(Cl)cc3)c2)c(OC)c1,"inconclusive [activator, single point]"
21,O=C(c1cccs1)N1CCOCC1,inactive
22,COc1ccc(C(=O)c2ccc(CC#N)s2)cc1,"inconclusive [activator, partial curve]"
23,Cc1ccc(SCC(=O)NC2CCCCCC2)cc1,"inconclusive [activator, single point]"
24,Cc1ccccc1OCc1nc(-c2ccc(NC(=O)c3ccco3)cc2)no1,"inconclusive [activator, partial curve]"
25,O=C1CCN(Cc2ccccc2)CCN1CCSc1ccccc1,active: 4.47 µM
26,CO/N=C/CC(=O)c1cnc(-c2ccc(Cl)cc2)s1,"inconclusive [activator, partial curve]"

row,SMILES,Potency
1,CC/C(C)=N\Nc1nc(-c2cc3cc(OC)ccc3oc2=O)cs1,"inconclusive [activator, partial curve]"
2,CSc1ncc(OCc2ccccc2)c(=O)[nH]1,inactive
3,O=C(NCCc1ccc(F)cc1)c1n[nH]c2ccccc12,"inconclusive [activator, single point]"
4,Cc1ccc(C(=O)CSc2nc(C)cc(SCc3nnc(-c4ccccc4)o3)n2)cc1,inactive
5,CCNc1nc2c(c(=O)[nH]c(=O)n2C)n1CCCc1ccccc1,inactive
6,COC(=O)N1CCc2c(sc(NC(=O)C3COc4ccccc4O3)c2C(N)=O)C1 (stereo not drawn),"inconclusive [activator, single point]"
7,COc1ccc(NC(=O)c2cc3ccccn3n2)cc1,"inconclusive [activator, full curve, poor fit]"
8,Cc1c(C(=O)Nc2ccc3c(c2)OCCO3)cnn1C,"inconclusive [activator, partial curve]"
9,CSC1=NC(C)N2C(SC)=NC(C)N12 (stereo not drawn),inactive
10,COc1ccc2nc(Nc3nc(C)c(CCC(C)C)c(=O)[nH]3)nc(C)c2c1,inactive
11,CC1(C)CC(=O)C(C2C3=C(CC(C)(C)CC3=O)Oc3ccc4ccccc4c32)C(=O)C1 (stereo not drawn),"inconclusive [activator, single point]"
12,O=C(CN(Cc1ccc(Br)cc1)S(=O)(=O)c1ccccc1)NCC1CCCO1 (stereo not drawn),inactive
13,O=C(NNc1nc2cc3c(cc2s1)OCCO3)c1ccccc1,"inconclusive [activator, partial curve]"
14,N#Cc1ccsc1NC(=O)C1CCN(C(=O)c2ccc(F)cc2)CC1,"inconclusive [activator, single point]"
15,CCOC(=O)c1cc(C#N)c(N2CCN(c3ccc(OC)cc3)CC2)[nH]c1=O,inactive
16,Cc1cc(=O)[nH]c(N/N=C/c2cc(C)n(CC(F)(F)F)c2C)n1,inactive
17,Oc1c(CN2CCc3ccccc3C2)cc(Cl)c2cccnc12,inactive
18,O=C(COc1ccccc1O)Nc1ccccc1Cl,"inconclusive [activator, single point]"
19,Cn1c(N)c(C(=O)COC(=O)CCCOc2ccc(Cl)cc2Cl)c(=O)n(C)c1=O,inactive
20,Cc1ccc(NC(=O)c2ccc(NC(=O)c3ccccc3)cc2)cc1C,"inconclusive [activator, single point]"
21,O=C(O)c1cc2c(cc1NC(=O)c1ccccc1C(F)(F)F)OCCCO2,inactive
22,CCN(C(=O)CSc1nnc2nc(C)cc(C)n12)c1ccccc1,inactive
23,CN(Cc1cccs1)C(=O)CSc1nc2ccccc2[nH]1,"inconclusive [activator, partial curve]"
24,Cc1nn(-c2ccccn2)c2c1C(c1ccccc1Cl)C1=C(N2)c2ccccc2C1=O (stereo not drawn),inactive
25,O=C(CSc1ccc(-c2cccs2)nn1)c1cccs1,"inconclusive [activator, partial curve]"
26,Cc1ccc(NC(=O)c2ccccc2Cl)c(Cl)c1,"inconclusive [activator, single point]"
